Assay results taken from PubChem BioAssay AID504937 (National Center for Advancing Translational Sciences (NCATS), 2011).
In all, about 340,000 compounds went through this assay and about 20 (0.006%) were called active. The shares of active, inactive and inconclusive entries below differ from those in the screen. The call rests on the fitted dose curve; in most records, active means well fitted inhibition curve with a large enough effect; inconclusive means small, poorly fitted or top-dose-only effect; inactive means no such curve, though single readings can be large or run the other way. Potencies beside an inconclusive call are fits to weak or partial responses and may not hold up.
Potency means the concentration at half of the fitted maximal effect; tags describe the fitted curve by direction and shape.

What follows are compounds tested against Sphingomyelin phosphodiesterase (Homo sapiens) (UniProt P17405) (assay: Inhibitors of Secretory Acid Sphingomyelinase (S-ASM): qHTS). Conditions: placental ASM, HMU-PC fluorogenic substrate (series up to 57.5 µM), 60 min.
UniProt P17405, sequence (P17405 whole entry, looked up): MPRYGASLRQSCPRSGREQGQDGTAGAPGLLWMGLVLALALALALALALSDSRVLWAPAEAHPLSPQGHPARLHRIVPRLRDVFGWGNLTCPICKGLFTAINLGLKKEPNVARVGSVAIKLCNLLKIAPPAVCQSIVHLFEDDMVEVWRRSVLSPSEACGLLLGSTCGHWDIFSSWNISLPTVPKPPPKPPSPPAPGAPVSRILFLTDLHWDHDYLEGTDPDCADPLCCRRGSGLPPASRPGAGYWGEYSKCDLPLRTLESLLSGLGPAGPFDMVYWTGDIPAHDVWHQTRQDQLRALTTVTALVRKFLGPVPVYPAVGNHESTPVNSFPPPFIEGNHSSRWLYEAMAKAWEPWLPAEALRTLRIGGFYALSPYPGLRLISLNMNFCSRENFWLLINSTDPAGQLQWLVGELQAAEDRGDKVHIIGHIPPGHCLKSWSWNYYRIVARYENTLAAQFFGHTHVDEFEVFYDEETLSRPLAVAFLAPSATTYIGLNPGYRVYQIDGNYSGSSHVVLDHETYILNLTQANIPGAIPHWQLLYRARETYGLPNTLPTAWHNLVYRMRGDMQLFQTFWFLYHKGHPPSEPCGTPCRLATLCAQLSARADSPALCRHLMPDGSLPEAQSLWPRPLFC
How it was run: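 Human placenta-derived ASM enzyme was preincubated with compound for 10 minutes at room temperature, then given fluorogenic substrate HMU-PC0 (9 uM final) for 60 minutes at 37 °C; a pH 10 stop preceded fluorescence reading at Ex 386/Em 447 nm.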
In the case of `CCCCC(CC)Cn1c(O)c(/C=C2\C=NN=C2c2ccccc2)sc1=S` (stereo not drawn), the Potency is reported as inconclusive: 126 µM [inhibitor, partial curve, poor fit]. In the case of `N#Cc1cccc(NC(=O)N2CCC(c3nc4c(nnn4Cc4cccc(Cl)c4)c(=O)[nH]3)CC2)c1`, the Potency is reported as inconclusive: 63.1 µM [inhibitor, partial curve]. In the case of `CCOC(=O)CCCCC(=O)c1[nH]c(=O)[nH]c1C[n+]1ccc(C)cc1`, the Potency is reported as “inactive”. `CC(=O)c1c(C)[nH]c(C(=O)Nc2nc(-c3ccc(Cl)cc3)cs2)c1C` was tested, and the Potency was inconclusive: 79.4 µM [inhibitor, partial curve, poor fit]. `COc1ccc(/C=C/C(=O)C2C(=O)C=C(C)OC2=O)cc1O` (stereo not drawn) was tested, and the Potency was inconclusive: 251 µM [inhibitor, partial curve, poor fit]. `O=C(Nn1c(O)c(C=C2N=c3ccccc3=N2)sc1=S)c1ccccc1Cl` was tested, and the Potency was inconclusive: 56.2 µM [inhibitor, partial curve]. For `Nc1nc(=S)c2ncn(C3OC(CO)C(O)C3O)c2[nH]1` (stereo not drawn), the Potency was inconclusive: 39.8 µM [inhibitor, partial curve]. `COC(=O)[C@@]12CCCCN1[C@H](c1ccc(-c3ccc(OC)cc3)cc1)[C@@H]1C(=O)N(C)C(=O)[C@@H]12` was tested, and the Potency was inconclusive: 31.6 µM [inhibitor, partial curve, poor fit]. In the case of `COc1ccc(NC(=O)CSc2ncn(-c3ccccc3)n2)cc1Cl`, the Potency is reported as inconclusive: 112 µM [inhibitor, partial curve, poor fit]. In the case of `COc1ccc(/C=N/NC(=O)CSCC(=O)Nc2ccccc2)cc1`, the Potency is reported as “inactive”. With `CCN1C/C(=C/c2ccc(N3CCOCC3)cc2)C(=O)/C(=C/c2ccc(N3CCOCC3)cc2)C1` the Potency was “inactive”. With `CCN(CC)C(=O)C1CCCN(c2ccc([N+](=O)[O-])cc2[N+](=O)[O-])C1` (stereo not drawn) the Potency was inconclusive: 355 µM [inhibitor, partial curve, poor fit]. `COC(=O)c1ccc(C)c(NC(=O)CCn2[nH]c(=O)ccc2=O)c1` was tested, and the Potency was “inactive”. `CC(=O)c1ccc(N2Cc3ccccc3/C2=N\C(=O)Nc2ccccc2)cc1` was tested, and the Potency was inconclusive: 1410 µM [inhibitor, partial curve, poor fit]. For `O=C(Nc1ccn(CCCN(CCCn2ccc(NC(=O)OCc3ccccc3)nc2=O)CCc2cc3ccccc3[nH]2)c(=O)n1)OCc1ccccc1`, the Potency was inconclusive: 100 µM [inhibitor, partial curve, poor fit]. With `Cc1nnc(N/N=C/c2cccc(OCc3ccc(Cl)c(Cl)c3)c2)n1N` the Potency was inconclusive: 89.1 µM [inhibitor, single point]. For `CCOC(=O)c1c(C)[nH]c(N=Nc2ccccc2)c1C`, the Potency was inconclusive: 79.4 µM [inhibitor, single point]. In the case of `COc1ccc(-c2nc(NC(=O)c3[nH]c(C)c(C(C)=O)c3C)sc2C)cc1`, the Potency is reported as inconclusive: 100 µM [inhibitor, partial curve, poor fit]. `Cc1c(/C=N/NC(=O)CNc2ccccc2)c2ccccn2c1C(=O)c1ccc(Cl)cc1` was tested, and the Potency was inconclusive: 112 µM [inhibitor, partial curve]. For `COc1cccc(C(=O)NC2CCN(C(=O)N3c4ccccc4Sc4ccccc43)CC2)c1`, the Potency was inconclusive: 35.5 µM [inhibitor, partial curve, poor fit]. With `Cc1nn(C)cc1/C=N\NC(=O)c1ccc2c(c1)c(C)c(C)n2Cc1ccccc1` the Potency was inconclusive: 89.1 µM [inhibitor, partial curve]. For `NC(N)=N/N=C/c1ccc(OCc2ccccc2)c(OCc2ccccc2)c1`, the Potency was inconclusive: 100 µM [inhibitor, single point]. `CCCCN(CCCC)CCC(O)c1cc2c(Cl)cc(Cl)cc2c2cc(C(F)(F)F)ccc12` (stereo not drawn) was tested, and the Potency was inconclusive: 44.7 µM [inhibitor, partial curve, poor fit]. In the case of `CCOc1cc(/C=C2\C(=N)N3N=C(S(=O)(=O)CC)SC3=NC2=O)ccc1OC(=O)c1ccco1`, the Potency is reported as inconclusive: 10 µM [inhibitor, partial curve, poor fit]. With `CCOC(=O)c1ccccc1NC(=O)C1CSC2(C)CCC(=O)N12` (stereo not drawn) the Potency was “inactive”. For `CCCCc1cc(=O)oc2cc(OCc3cc(OC)c(OC)c(OC)c3)c(Cl)cc12`, the Potency was inconclusive: 2510 µM [inhibitor, partial curve, poor fit]. `Cc1ccc(O)c(N=NC2=C(O)CC(C)(C)CC2=O)c1` was tested, and the Potency was “inactive”. With `NC(=O)c1oc2ccccc2c1NC(=O)c1ccc([N+](=O)[O-])o1` the Potency was “inactive”. In the case of `COc1ccc(-n2c(C)cc(/C=C3\SC(=S)NC3=O)c2C)cc1`, the Potency is reported as “inactive”. `CCOc1ccc(/C=C2\SC(=S)N(CCC(=O)N(CCO)c3ccccc3)C2=O)cc1` was tested, and the Potency was inconclusive: 200 µM [inhibitor, partial curve, poor fit]. For `CCOc1ccc(S(=O)(=O)N2CCN(C(=O)COc3ccc(Br)cc3)CC2)cc1`, the Potency was inconclusive: 251 µM [inhibitor, partial curve, poor fit]. For `COc1cccc(/C=N/Nc2ncnc3scc(-c4ccccc4)c23)c1OC`, the Potency was inconclusive: 398 µM [inhibitor, partial curve, poor fit]. For `O=C(Nc1nc(-c2cccs2)cs1)c1ccc(S(=O)(=O)N2CCCC2)cc1`, the Potency was inconclusive: 1410 µM [inhibitor, partial curve, poor fit]. For `CN(C)CCCn1c(SCC(=O)Nc2nc(-c3cccc(Br)c3)cs2)nc2ccccc2c1=O`, the Potency was inconclusive: 89.1 µM [inhibitor, single point]. For `O=C1CSc2ccc(C(=O)Nc3cccc(S(=O)(=O)Nc4ccc(Br)cc4)c3)cc2N1`, the Potency was inconclusive: 70.8 µM [inhibitor, partial curve, poor fit]. For `CN(Cc1ccccc1)C(=O)COc1ccc(C(C)(C)C)cc1`, the Potency was inconclusive: 126 µM [inhibitor, partial curve, poor fit]. In the case of `COc1ccc(C(=O)CC(=O)c2ccc(C(C)(C)C)cc2)cc1`, the Potency is reported as “inactive”. For `CCOc1ccccc1NC(=O)c1cc(-c2ccncc2)nc2c(Cl)cccc12`, the Potency was inconclusive: 316 µM [inhibitor, partial curve, poor fit]. In the case of `C/C(=N\NC(=O)COc1ccc(C(C)(C)C)cc1)c1ccc(OC(F)F)cc1`, the Potency is reported as inconclusive: 251 µM [inhibitor, partial curve, poor fit]. For `Cc1noc(C)c1S(=O)(=O)N(C)C[C@H]1Oc2c(NC(=O)Nc3ccc(C(F)(F)F)cc3)cccc2C(=O)N([C@H](C)CO)C[C@@H]1C`, the Potency was inconclusive: 100 µM [inhibitor, partial curve, poor fit]. With `COc1ccc(-c2cc(C(=O)N3CCN(C(c4ccccc4)c4ccccc4)CC3)no2)cc1OC` the Potency was inconclusive: 447 µM [inhibitor, partial curve, poor fit]. For `CCn1cc([N+](=O)[O-])c(C(=O)N2N=C(c3ccc(Cl)c(Cl)c3)CC2c2ccccc2O)n1` (stereo not drawn), the Potency was inconclusive: 89.1 µM [inhibitor, single point]. `Nc1ncnc2c1ncn2[C@H]1C[C@H](O)[C@@H](COP(=O)(O)O)O1` was tested, and the Potency was inconclusive: 31.6 µM [inhibitor, partial curve]. In the case of `Cc1c(Br)c(C(=O)NCc2cc3cc(Cl)ccc3[nH]2)nn1C`, the Potency is reported as inconclusive: 224 µM [inhibitor, partial curve, poor fit]. In the case of `O=C1CC(SC(=Nc2ccccc2)Nc2ccccc2)C(=O)N1c1cccc(Cl)c1` (stereo not drawn), the Potency is reported as inconclusive: 89.1 µM [inhibitor, partial curve, poor fit]. With `CCCc1ccc(OCC(=O)Nc2cc(S(=O)(=O)CC)ccc2O)cc1` the Potency was inconclusive: 79.4 µM [inhibitor, partial curve, poor fit]. In the case of `N#CC1=C(N)NC(SCC(=O)c2ccc(Br)cc2)=C(C#N)C12CCCCC2`, the Potency is reported as inconclusive: 316 µM [inhibitor, partial curve, poor fit]. With `CCCCn1c(/N=C/c2c[nH]c3ccccc23)nc2ccccc21` the Potency was inconclusive: 89.1 µM [inhibitor, single point]. `COc1ccccc1N1CCN(C(=O)C2CCN(S(=O)(=O)c3ccc4c(c3)CC(C)N4C(=O)C3CC3)CC2)CC1` (stereo not drawn) was tested, and the Potency was “inactive”. For `Cc1ccccc1NC(=O)c1ccc(Nc2c([N+](=O)[O-])cc([N+](=O)[O-])c3ccccc23)cc1`, the Potency was inconclusive: 708 µM [inhibitor, partial curve, poor fit]. For `CCCCc1ccc(NC(=O)CSC2=C(C#N)C(c3ccco3)C3=C(CCCC3=O)N2)cc1` (stereo not drawn), the Potency was inconclusive: 141 µM [inhibitor, partial curve, poor fit]. `O=C(c1cccs1)n1nc(-c2ccccc2)nc1NCc1ccco1` was tested, and the Potency was “inactive”. With `CCCCNc1c(-c2ccc(-c3ccc(C(C)=O)cc3)c(OC)c2)nc2cc(C)ccn12` the Potency was inconclusive: 70.8 µM [inhibitor, partial curve]. For `CCCCOc1ccc(S(=O)(=O)NNC(=O)C2Cc3c(ccc4ccccc34)O2)cc1` (stereo not drawn), the Potency was inconclusive: 89.1 µM [inhibitor, single point]. `c1ccc(-c2ncnc3ccccc23)cc1` was tested, and the Potency was “inactive”. In the case of `Oc1ccc(N=Nc2nc(-c3ccccc3)c(-c3ccccc3)[nH]2)cc1`, the Potency is reported as inconclusive: 63.1 µM [inhibitor, single point]. With `CC(=O)Nc1ccc(C=NN=C2c3ccccc3-c3ccccc32)cc1` the Potency was inconclusive: 178 µM [inhibitor, partial curve, poor fit]. With `Cc1ccc(N(C)S(=O)(=O)c2cccc(C(=O)OCC(=O)c3c(N)n(C)c(=O)n(C)c3=O)c2)cc1` the Potency was inconclusive: 100 µM [inhibitor, partial curve, poor fit].
